Laboratory results: paper PMC9911399, “Two distinct binding modes provide the RNA-binding protein RbFox with extraordinary sequence specificity”
Residue numbers refer to the chain shown, from its start. Some of the results follow.

T1: RBFOX1 RRM (Homo sapiens, UniProt Q9NWB1 109-208)
T1 sequence: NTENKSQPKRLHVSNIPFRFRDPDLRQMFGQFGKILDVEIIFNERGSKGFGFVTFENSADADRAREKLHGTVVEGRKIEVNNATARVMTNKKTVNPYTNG

B1: CGCGCAU (DNA:RNA)
RNA: GGGAGACCGGAAUUCAGAUUGUCCCGCGCAUUUAAAUCCCGUCGUAGCCACCA
DNA 1: CAATCTGAATTCCGGTCTCCC
DNA 2: TGGTGGCTACGACGGGATT
B2: GGAUCGG (DNA:RNA)
RNA: B1 RNA with C25G, C27A, G28U, A30G, U31G
DNA 1: CAATCTGAATTCCGGTCTCCC
DNA 2: TGGTGGCTACGACGGGATT
B3: GAUCGGA (DNA:RNA)
RNA: GGGAGACCGGAAUUCAGAUUGUCCGAUCGGAUUAAAUCCCGUCGUAGCCACCA
DNA 1: CAATCTGAATTCCGGTCTCCC
DNA 2: TGGTGGCTACGACGGGATT
B4: AGCAUAA (DNA:RNA)
RNA: B1 RNA with C25A, G28A, C29U, U31A
DNA 1: CAATCTGAATTCCGGTCTCCC
DNA 2: TGGTGGCTACGACGGGATT
B5: CUACCGU (DNA:RNA)
RNA: B1 RNA with G26U, C27A, G28C, A30G
DNA 1: CAATCTGAATTCCGGTCTCCC
DNA 2: TGGTGGCTACGACGGGATT
B6: AGAUUGU (DNA:RNA)
RNA: B1 RNA with C25A, C27A, G28U, C29U, A30G
DNA 1: CAATCTGAATTCCGGTCTCCC
DNA 2: TGGTGGCTACGACGGGATT
B7: UUUCAAC (DNA:RNA)
RNA: B3 RNA with G25U, A26U, G29A, G30A, A31C
DNA 1: CAATCTGAATTCCGGTCTCCC
DNA 2: TGGTGGCTACGACGGGATT
B8: UUCUAGC (DNA:RNA)
RNA: B1 RNA with C25U, G26U, G28U, C29A, A30G, U31C
DNA 1: CAATCTGAATTCCGGTCTCCC
DNA 2: TGGTGGCTACGACGGGATT
B9: CGUGUCU (DNA:RNA)
RNA: B1 RNA with C27U, C29U, A30C
DNA 1: CAATCTGAATTCCGGTCTCCC
DNA 2: TGGTGGCTACGACGGGATT

molecular target: T1, RBFOX1 RRM; experiment: EMSA; HiTS-Eq, 1 nM pool, 10 min; buffer printed only for the single-RNA assays: 10 mM Tris pH 7.5, 150 mM NaCl, 3.4 mM EDTA, 0.001% NP-40, 30 C; conditions: tags: His6 N-terminal (pET28a); label: 5' 32P
In short: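 These values rest on relative association constants, computed from read-count changes of each RNA species versus the control reaction and normalised to the cognate motif. Reads came from free RNA recovered by 8% native PAGE after purified RbFox RRM (wild type or mutant) at increasing concentrations was equilibrated for 10 min in 50 µL with 1 nM of a 5′-radiolabelled pool with 7 randomized nucleotides and DNA-annealed flanks.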

Binder	binding signal
B1	0.0125 KA relative to UGCAUGU
B2	0.0132 KA relative to UGCAUGU
B3	0.0063 KA relative to UGCAUGU
B4	0.00471 KA relative to UGCAUGU
B5	0.00445 KA relative to UGCAUGU
B6	0.0119 KA relative to UGCAUGU
B7	0.00553 KA relative to UGCAUGU
B8	0.00968 KA relative to UGCAUGU
B9	0.0155 KA relative to UGCAUGU
